In PubChem BioAssay (Tox21):
Values joined by “and” are separate entries in the source; they are usually repeats but may differ in a detail not shown here. Equal values may be shown once. This list was built around the results that the source calls inconclusive (neither active nor inactive); the mix of calls is not that of the screen. Potencies of inconclusive entries are doubtful fits and often do not repeat. Active and inactive are the calls of the source. Unless noted, calls follow the shape of the dose curve; as a rule, active = well fitted cell-killing curve with a large enough effect in the repeat runs; inconclusive = weak or mixed curves, or effect the other way; inactive = no such curve, though single readings can be large or run the other way.

Target: Glucocorticoid receptor (Homo sapiens) (UniProt P04150)
Assay: qHTS assay to identify small molecule agonists of the glucocorticoid receptor (GR) signaling pathway (AID 720691; active = well fitted activation curve with a large enough effect in the signal ratio in the repeat runs, not every such curve was filed as active; inconclusive = weak or mixed curves, or effect the other way; inactive = no such curve, though single readings can be large or run the other way; the % refers to the signal ratio; as to activation: % is scaled to controls: 0 for no effect and ±100 for the full control effect)
Conditions: GR-bla HeLa, beta-lactamase reporter ratio, 18 h; activation: at 62.4 µM (top of the series) unless noted
How it was run: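 qHTS in GR-bla HeLa cells: 4 h settling at 37 C/5% CO2, 18 h compound incubation at 37 C, 2 h LiveBLAzer B/G FRET substrate at room temperature, fluorescence intensity measured.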
Potency is read from the fitted curve at half-maximal effect; tags tell the direction and shape of the fitted curve or compound fluorescence and quenching.

UniProt P04150, sequence (P04150 whole entry, looked up): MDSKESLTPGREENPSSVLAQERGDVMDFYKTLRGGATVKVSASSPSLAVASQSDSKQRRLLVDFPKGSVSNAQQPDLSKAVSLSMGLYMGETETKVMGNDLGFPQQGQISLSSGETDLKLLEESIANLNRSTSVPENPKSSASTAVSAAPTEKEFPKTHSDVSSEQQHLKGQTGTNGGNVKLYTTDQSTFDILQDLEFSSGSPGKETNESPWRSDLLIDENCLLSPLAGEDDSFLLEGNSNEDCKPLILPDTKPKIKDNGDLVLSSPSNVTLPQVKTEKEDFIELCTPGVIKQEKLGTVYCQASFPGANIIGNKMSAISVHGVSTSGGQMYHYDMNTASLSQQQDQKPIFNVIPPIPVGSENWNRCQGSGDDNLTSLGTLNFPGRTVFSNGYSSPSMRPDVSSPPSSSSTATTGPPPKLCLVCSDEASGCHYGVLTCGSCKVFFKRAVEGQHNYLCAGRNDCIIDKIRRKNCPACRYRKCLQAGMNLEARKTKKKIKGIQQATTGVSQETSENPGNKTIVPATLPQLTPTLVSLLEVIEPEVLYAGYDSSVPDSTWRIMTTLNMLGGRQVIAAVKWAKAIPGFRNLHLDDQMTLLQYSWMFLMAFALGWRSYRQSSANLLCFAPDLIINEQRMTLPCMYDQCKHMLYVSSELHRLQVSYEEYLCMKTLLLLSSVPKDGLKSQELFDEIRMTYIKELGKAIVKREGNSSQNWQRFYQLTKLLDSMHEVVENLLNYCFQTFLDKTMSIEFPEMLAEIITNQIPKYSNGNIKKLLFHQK

Row | SMILES | Potency | activation
1 | C#C[C@]1(O)CC[C@H]2[C@@H]3CCC4=Cc5oncc5C[C@]4(C)[C@H]3CC[C@@]21C | inactive | –
2 | CC[C@H]1CN2CCc3cc(OC)c(OC)cc3[C@@H]2C[C@@H]1C[C@H]1NCCc2cc(OC)c(OC)cc21 | – | inconclusive: -11.1%
3 | COc1cc(C=C2CCC/C(=C\c3ccc(O)c(OC)c3)C2=O)ccc1O | inconclusive: 0.19 µM [cytotoxic, full curve, poor fit] | –
4 | CCCCCCCC[N+](CCCCCCCC)(CCCCCCCC)CCCCCCCC | inconclusive: 8.69 µM [cytotoxic, full curve] | –
5 | CCN(CC)CCCN(c1ccccc1)C1Cc2ccccc2C1 | inconclusive: 15.1 µM [cytotoxic, partial curve] | –
6 | CCOC(=O)c1ccccc1C(=C1C=C(Br)C(=O)C(Br)=C1)c1cc(Br)c(O)c(Br)c1 | – | inconclusive: -19.9%
7 | O=C(O)c1ccc(-n2nc(-c3ccccc3O)nc2-c2ccccc2O)cc1 | inconclusive: 12 µM [full curve] | –
8 | NC(=NCCCCCCN=C(N)/N=C(\N)Nc1ccc(Cl)cc1)/N=C(\N)Nc1ccc(Cl)cc1 | inconclusive: 19.4 µM [cytotoxic, full curve] [middle of 5 runs] | –
9 | CNC(=O)c1ccccc1Sc1ccc2c(/C=C/c3ccccn3)n[nH]c2c1 | – | inconclusive: -14.2%

Target: Glucocorticoid receptor (Homo sapiens) (UniProt P04150)
Assay: qHTS assay to identify small molecule antagonists of the glucocorticoid receptor (GR) signaling pathway (AID 720692; active = well fitted inhibition curve with a large enough effect in the signal ratio in the repeat runs, not every such curve was filed as active; inconclusive = weak or mixed curves, or effect the other way; inactive = no such curve, though single readings can be large or run the other way; the % refers to the signal ratio; as to activity change, negative = inhibition: % is scaled to controls: 0 for no effect and ±100 for the full control effect)
Conditions: GR-bla HeLa, beta-lactamase FRET ratio, dexamethasone-stimulated, 18 h; activity change, negative = inhibition: at 58.5 µM (top of the series) unless noted
How it was run: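 Inhibition of glucocorticoid signalling is measured in HeLa cells with a GRE-controlled beta-lactamase reporter; cells are co-treated with compound and 5 nM dexamethasone (final) for 18 h before FRET substrate readout.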

Row | SMILES | Potency | activity change, negative = inhibition
10 | C#C[C@]1(O)CC[C@H]2[C@@H]3CCC4=Cc5oncc5C[C@]4(C)[C@H]3CC[C@@]21C | active: 5.35 µM and inconclusive: 61.6 µM [cytotoxic, single point] | –
11 | CC1=CC(O)CC(C)(C)C1 (centres undefined) | – | inactive: 7.93%
12 | CC[C@H]1CN2CCc3cc(OC)c(OC)cc3[C@@H]2C[C@@H]1C[C@H]1NCCc2cc(OC)c(OC)cc21 | active: 1.51 µM | –
13 | C/C=C(/C(=C/C)c1ccc(O)cc1)c1ccc(O)cc1 | – | inconclusive: -23.5% [at 27 µM]
14 | Nc1ccc(N=Nc2ccccc2)c(N)c1 | – | inconclusive: -11.9%
15 | CC(=O)N/N=C/c1ccc([N+](=O)[O-])o1 | inconclusive: 30.1 µM [inhibitor, single point] | –
16 | COc1cc(C=C2CCC/C(=C\c3ccc(O)c(OC)c3)C2=O)ccc1O | inconclusive: 26.8 µM [cytotoxic, single point] | –
17 | CCCCCCCC[N+](CCCCCCCC)(CCCCCCCC)CCCCCCCC | inconclusive: 17.3 µM [cytotoxic, full curve] | –
18 | CCN(CC)CCCN(c1ccccc1)C1Cc2ccccc2C1 | inconclusive: 26.8 µM [cytotoxic, single point] | –
19 | CN(C)c1ccc(N=NS(=O)(=O)O)cc1 | inconclusive: 9.22 µM [activator] | –
20 | Nc1ncnc2c1ncn2[C@@H]1O[C@H](COP(=O)(O)O)[C@@H](O)[C@H]1O | inconclusive: 10.7 µM [activator, full curve] | –
21 | CCOC(=O)c1ccccc1C(=C1C=C(Br)C(=O)C(Br)=C1)c1cc(Br)c(O)c(Br)c1 | active: 4.61 µM | –
22 | O=C(O)c1ccc(-n2nc(-c3ccccc3O)nc2-c2ccccc2O)cc1 | inconclusive: 9.52 µM | –
23 | CC1CCC(C(C)CS)CC1S (centres undefined) | inconclusive: 43.6 µM [cytotoxic, partial curve] | –
24 | CCCCCCCCCCCC[N+](C)(C)CCCCCCCCCCCC | inconclusive: 38.9 µM [cytotoxic, partial curve] | –
25 | CCN(CC)CCOc1ccc(Cc2ccccc2)cc1 | inconclusive: 26.8 µM [cytotoxic, single point] | –
26 | O=C(Nc1cccc([N+](=O)[O-])c1)c1cc2ccccc2cc1O | inconclusive: 1.23 µM [falling, partial curve, poor fit] | –
27 | NC(=NCCCCCCN=C(N)/N=C(\N)Nc1ccc(Cl)cc1)/N=C(\N)Nc1ccc(Cl)cc1 | inconclusive: 55.9 µM [cytotoxic, single point] [middle of 4 runs] | inconclusive: -27%
28 | CCC(C)c1cc([N+](=O)[O-])cc([N+](=O)[O-])c1OC(=O)OC(C)C (centres undefined) | inconclusive: 61.6 µM [cytotoxic, partial curve, poor fit] | –
29 | CNC(=O)c1ccccc1Sc1ccc2c(/C=C/c3ccccn3)n[nH]c2c1 | – | inactive: 14.5%

Test system: not listed separately
Assay: qHTS assay to identify small molecule antagonists of the glucocorticoid receptor (GR) signaling pathway - cell viability counter screen (AID 720693); also: nearly all actives have a fitted effect of over 55% in size
Conditions: GR-bla HeLa viability, CellTiter-Glo luminescence, 18 h, with 5 nM dexamethasone present; viability change, negative = cytotoxic: at 58.5 µM (top of the series)

Row | SMILES | Potency
30 | CC[C@H]1CN2CCc3cc(OC)c(OC)cc3[C@@H]2C[C@@H]1C[C@H]1NCCc2cc(OC)c(OC)cc21 | inconclusive: 10.7 µM [cytotoxic, partial curve] and active: 4.92 µM
31 | C/C=C(/C(=C/C)c1ccc(O)cc1)c1ccc(O)cc1 | inconclusive: 2.29 µM [rising, full curve, poor fit]
32 | CC(=O)N/N=C/c1ccc([N+](=O)[O-])o1 | inconclusive: 26.8 µM [cytotoxic, single point]
33 | COc1cc(C=C2CCC/C(=C\c3ccc(O)c(OC)c3)C2=O)ccc1O | active: 23.9 µM
34 | CCN(CC)CCCN(c1ccccc1)C1Cc2ccccc2C1 | active: 23.9 µM
35 | CCN(Cc1c(F)cccc1Cl)c1c([N+](=O)[O-])cc(C(F)(F)F)cc1[N+](=O)[O-] | inconclusive: 43.6 µM [cytotoxic, partial curve]
36 | CCOC(=O)c1ccccc1C(=C1C=C(Br)C(=O)C(Br)=C1)c1cc(Br)c(O)c(Br)c1 | inconclusive: 32.6 µM [cytotoxic, partial curve]
37 | CC1CCC(C(C)CS)CC1S (centres undefined) | active: 49 µM
38 | CNc1ccc(O)cc1 | active: 54.8 µM
39 | CCN(CC)CCOc1ccc(Cc2ccccc2)cc1 | inconclusive: 26.8 µM [cytotoxic]
40 | O=C(Nc1cccc([N+](=O)[O-])c1)c1cc2ccccc2cc1O | inconclusive: 2.75 µM [cytotoxic, full curve]
41 | CCC(C)c1cc([N+](=O)[O-])cc([N+](=O)[O-])c1OC(=O)OC(C)C (centres undefined) | inconclusive: 54.9 µM [cytotoxic, single point]
42 | CCc1nc(N)nc(N)c1-c1ccc(Cl)cc1 | inconclusive: 26.8 µM [cytotoxic, single point]
43 | Cc1ccc(C(C)C)c(O)c1 | inconclusive: 54.9 µM [cytotoxic, single point]
